About 5,000 (1.2%) of roughly 410,000 compounds were called active. This list was built around the results that the source calls inconclusive (neither active nor inactive); the mix of calls is not that of the screen. Calls follow the shape of the dose curve; as a rule, active = well fitted inhibition curve with a large enough effect; inconclusive = small, poorly fitted or top-dose-only effect; inactive = no such curve, though single readings can be large or run the other way. Where the call is inconclusive, the potency comes from a doubtful curve fit.
Assay: qHTS for Inhibitors of TGF-b; also: nearly all actives have a fitted effect of over 65% in size
Conditions: HepG2 CAGA-GFP TGF-b/SMAD3 reporter, GFP fluorescence, 18 h, TGF-beta stimulated, 500 pg/mL final; series mostly up to 46.1 µM; activity, negative = inhibition: at the top concentration
Procedure, shortened: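 TGF-beta reporter screen: HEPG2 CAGA-GFP, 1% FBS, 500 pg/mL TGF-beta final, 18 h; per-cell GFP summed per well; curves fitted and categorized by class.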
% is scaled to controls: 0 for no effect and ±100 for the full control effect; potency is read from the fitted curve at half-maximal effect; tags tell the direction and shape of the fitted curve.

Compound	activity, negative = inhibition	Potency
CCCc1ccc(OCc2ccc(C(=O)Nc3ccccc3C(=O)OC)o2)cc1	inactive: 3.47%	–
Cc1ccc2oc(C(=O)N3CCC(c4nc5ccccc5s4)CC3)c(C)c2c1	–	inconclusive: 35.5 µM [inhibitor, single point]
COc1ccc(Nc2nc(NCc3cccs3)nc3ccsc23)cc1OC	–	inconclusive: 12.6 µM [inhibitor, single point]
CCN(C[C@H]1N[C@@](Cc2ccccc2)(C(=O)OC)[C@H]2C(=O)N(Cc3ccccc3)C(=O)[C@@H]12)C(=O)Nc1ccc(Cl)cc1	–	active: 12.6 µM
Cc1nc2ccc(NS(=O)(=O)c3c(F)cc(F)cc3Br)cc2s1	–	inconclusive: 12.6 µM [inhibitor, partial curve, poor fit]
Cc1ccc(OCCN2CCN(c3nc(NCc4ccco4)c4ccccc4n3)CC2)cc1	–	inconclusive: 25.1 µM [inhibitor, single point]
Cc1nc2ccccc2n1CC(O)COCC1CC=CCC1 (stereo not drawn)	–	inconclusive: 10 µM [inhibitor, partial curve]
O=C1c2cc(Cl)ccc2OC2(CCNCC2)C12CC(c1ccccc1)=NO2 (stereo not drawn)	–	inconclusive: 35.5 µM [inhibitor, single point]
CCc1cccc(NC(=O)C2CCCN2S(=O)(=O)c2ccc3nc(-c4ccccc4)[nH]c3c2)c1 (stereo not drawn)	–	inconclusive: 11.2 µM [inhibitor, partial curve, poor fit]
COc1cc(C2CC(=O)c3cnc(N4CCN(Cc5ccccc5)CC4)nc3C2)cc(OC)c1OC (stereo not drawn)	inactive: -10.4%	–
CC(=O)c1ccc(NC(=O)CCn2cccn2)cc1	inactive: 1.36%	–
Cc1cc2c(cc1C)N(C(=O)CCl)CCN2C(=O)CCl	–	inconclusive: 7.94 µM [inhibitor, partial curve, poor fit]
CC1OC2(C)OC(=N)C1(C#N)C(C#N)(C#N)C2c1ccccc1 (stereo not drawn)	inactive: -0.53%	–
CCOc1cc(CNc2ccc(N3CCOCC3)cc2)cc(Br)c1OCC	inactive: 0%	–
CCOc1c(CNCCSc2nnnn2C)cccc1OC	inactive: -1.4%	–
Cc1cc(C)c(-n2nnnc2SCC(=O)c2cccs2)c(C)c1	–	inconclusive: 0.708 µM [inhibitor, full curve]
COc1ccc(/C=C2\SC(=S)N(CCC(=O)NCCCn3ccnc3)C2=O)cc1	–	inconclusive: 7.08 µM [inhibitor, partial curve]
COc1ccc(OC)c([C@@H]2Nc3ccc(C(=O)O)cc3[C@@H]3C=CC[C@@H]32)c1	inactive: -4.04%	–
O=C(Nc1ccc(F)c(F)c1)c1cc(S(=O)(=O)N2CCN(c3ccccn3)CC2)ccc1F	–	inconclusive: 35.5 µM [inhibitor, single point]
COc1ccc(CNC(=O)C(CC(C)C)NS(=O)(=O)c2ccc3c(c2)oc(=O)n3C)cc1 (stereo not drawn)	–	inconclusive: 0.501 µM [inhibitor, full curve, poor fit]
Cc1ccc2nc(NC(=O)CCCc3nc4ccccc4s3)sc2c1	–	inconclusive: 35.5 µM [inhibitor, single point]
O=C(COC(=O)CCc1ccccc1)Nc1cc(S(=O)(=O)N2CCOCC2)ccc1N1CCCC1	inactive: 6.85%	–
CCOc1cccc(C(=O)Nc2ccccc2C(=O)N2CCOCC2)c1	–	inconclusive: 3.16 µM [inhibitor, single point]

Compound	activity, negative = inhibition	Potency
CCn1c(COc2ccc(C(C)C)cc2)nnc1SCC(=O)Nc1nccs1	inactive: 12.3%	–
COc1ccc(C#Cc2c(C=O)n(C)c3ccccc23)cc1	–	inconclusive: 35.5 µM [inhibitor, single point]
O=C(OCC(=O)N(Cc1ccccc1)Cc1ccccc1)c1ccccc1NCCO	inactive: -4.4%	–
Cc1ccc(NC(=O)c2ccc(NC(=O)C3CCCCC3C(=O)O)cc2)cc1 (stereo not drawn)	inactive: 8.05%	–
O=C(Cc1c[nH]c2ccccc12)NCc1ccc(Cl)cc1	–	inconclusive: 0.112 µM [inhibitor, full curve, poor fit]
N=c1n(CC(=O)c2ccc(Br)s2)c2ccccc2n1Cc1ccccc1	–	inconclusive: 35.5 µM [inhibitor, single point]
Oc1c(Br)cc(Br)cc1C=Nc1cccc2ncccc12	–	inconclusive: 35.5 µM [inhibitor, single point]
Cc1ccc(NC(=S)N/N=C/c2c(C)[nH]c3ccccc23)cc1	–	inconclusive: 22.4 µM [inhibitor, single point]
S=C(Nc1ccc(Br)cc1)N1CCn2cccc2C1c1cccnc1 (stereo not drawn)	–	inconclusive: 12.6 µM [inhibitor, single point]
CCS(=O)(=O)NCC(c1cccnc1)N1CCN(c2ccccc2F)CC1 (stereo not drawn)	inactive: 17.8%	–
COc1ccc(-c2cc(C(=O)NCC3CCCO3)c3ccccc3n2)c(OC)c1 (stereo not drawn)	inactive: 18.9%	–
O=C(Nc1ccc2ccccc2c1)c1cnccn1	inactive: -7.91%	–
CC(C)COc1cccc(C(=O)Nc2ccc(N3CCOCC3)cc2N2CCOCC2)c1	inactive: -23.8%	–
CCc1nnc(NC(=O)CCCSc2nc3ccccc3[nH]2)s1	–	inconclusive: 0.112 µM [inhibitor, full curve, poor fit]
CCOC(=O)C1=CN(Cc2ccco2)S(=O)(=O)N(C)C1c1ccc(F)c(Cl)c1 (stereo not drawn)	–	inconclusive: 10 µM [inhibitor, partial curve]
C[C@H](CO)N1C[C@H](C)[C@@H](CN(C)Cc2ccncc2)OCc2cnnn2CCCC1=O	inactive: -26.3%	–
CCN(CC)c1ccc(S(=O)(=O)N2CCOCC2)cc1NC(=O)CNCc1ccccc1	–	inconclusive: 2.82 µM [inhibitor, full curve, poor fit]
Cc1nc(S(=O)(=O)N2CCN(c3cccc(Cl)c3)CC2)cn1C	inactive: 6.01%	–
CC(C)Cn1c(CN2CCN(c3cccc(Cl)c3)CC2)nc2c1c(=O)[nH]c(=O)n2C	–	inconclusive: 35.5 µM [inhibitor, single point]
O=C(COc1ccc(Cl)cc1Cl)NN=C1c2ccccc2-c2ccccc21	inactive: -14.5%	–
COc1ccc(N(CC(=O)NCCc2ccc(C)cc2)S(=O)(=O)c2c(C)nn(C)c2C)cc1	–	inconclusive: 7.08 µM [inhibitor, full curve, poor fit]
O=C(c1ccsc1)N1CCCC(N2CCN(c3cccc(C(F)(F)F)c3)CC2)C1 (stereo not drawn)	–	inconclusive: 7.94 µM [inhibitor, partial curve]
Cc1cc(C)nc(OC(C(=O)O)C(OCCc2ccccc2)(c2ccc(F)cc2)c2ccc(F)cc2)n1 (stereo not drawn)	–	inconclusive: 22.4 µM [inhibitor, single point]

Compound	activity, negative = inhibition	Potency
CCC(C)c1c(O)nc(SCc2ccccc2)[nH]c1=O (stereo not drawn)	–	inconclusive: 2.24 µM [inhibitor, partial curve]
CC(NCc1cc(Br)ccc1OCC(N)=O)C12CC3CC(CC(C3)C1)C2 (stereo not drawn)	–	inconclusive: 35.5 µM [inhibitor, single point]
CCC(c1nnnn1Cc1ccco1)N1CCN(c2cc(Cl)ccc2C)CC1 (stereo not drawn)	inactive: -16.5%	–
CCOC(=O)c1c(NC(=S)N2CCCCC2)sc2c1CCN(C(=O)OCC)C2	–	inconclusive: 17.8 µM [inhibitor, single point]
O=C1c2ccccc2-c2cc([N+](=O)[O-])c([N+](=O)[O-])cc21	–	inconclusive: 3.55 µM [inhibitor, partial curve]
CCc1ccccc1NC(=O)CNC(=O)CCc1nc2sc3c(c2c(=O)[nH]1)CCCC3	–	inconclusive: 6.31 µM [inhibitor, single point]
N#Cc1ccccc1CSc1nnc(Cc2ccccc2)o1	inactive: -3.78%	–
O=C(COC(=O)c1ccccc1OC(F)F)Nc1ccc2[nH]c(=O)[nH]c2c1	inactive: 11.5%	–
Cc1nc(NCCCn2ccnc2)c2ccccc2n1	inactive: 7.85%	–
COc1ccc(OC)c(NC(=O)c2cc3oc4ccccc4c3cc2O)c1	inactive: -14.8%	–
Cc1ccc(S(=O)(=O)N2C[C@@H](C)[C@]3(C2)[C@H](O)[C@H](OC(=O)Nc2cccs2)C[C@H]2C(=O)N(c4ccccc4)C(=O)[C@H]23)cc1	–	inconclusive: 12.6 µM [inhibitor, single point]
CN1CCN(C(=S)NC(=O)c2ccc(-c3ccccc3)cc2)CC1	–	inconclusive: 35.5 µM [inhibitor, single point]
COCCCNC(=O)CCCn1c(=O)c2ccccc2n(CC(=O)Nc2ccc(C)cc2Cl)c1=O	–	inconclusive: 5.62 µM [inhibitor, full curve, poor fit]
CCC(C(=O)NC1CCCCC1)N(Cc1cccs1)C(=O)CCC(=O)Nc1cc(C)on1 (stereo not drawn)	inactive: -2.61%	–
COc1ccc(NS(=O)(=O)c2cc(NC(=O)[C@@H](NC(=O)c3ccccc3)C(C)C)ccc2C)cc1	–	inconclusive: 14.1 µM [inhibitor, single point]
COc1ccc(CN(C)C(=O)c2ccc3c(=O)n4c(nc3c2)CCC4)c(OC)c1	–	inconclusive: 14.1 µM [inhibitor, single point]
Cc1ccccc1S(=O)(=O)NC1OC(=O)C(Oc2ccccc2)=C1Br (stereo not drawn)	inactive: -25.5%	–
C=CCn1c(SCC(=O)C(C)(C)C)nnc1-c1ccccn1	–	inconclusive: 35.5 µM [inhibitor, partial curve, poor fit]
Cc1ccc(S(=O)(=O)n2c(CN3CCCC(C)C3)nc3ccccc32)cc1 (stereo not drawn)	–	inconclusive: 35.5 µM [inhibitor, single point]
CCc1ccc2oc(C(=O)Nc3cccnc3)c(C)c2c1	–	inconclusive: 17.8 µM [inhibitor, single point]
Nc1ccccc1SC(CC(=O)c1ccccc1)c1cccc([N+](=O)[O-])c1 (stereo not drawn)	–	inconclusive: 11.2 µM [inhibitor, partial curve, poor fit]
CCn1c(C)c(C)c2cc(C(=O)N3CCN(c4ccccc4)CC3)ccc21	–	inconclusive: 2.24 µM [inhibitor, full curve, poor fit]

Source: PubChem BioAssay AID588855 (National Center for Advancing Translational Sciences (NCATS), 2011)
